# Laboratory results from PubChem BioAssay (Tox21).
# Several values for one entry are separate records, joined by “and”; a condition that tells them apart may be missing. Identical values can stand only once. Inconclusive results, whose numbers are uncertain, are shown with a selection of clear calls. For some of these results: Potencies beside an inconclusive call are fits to weak or partial responses and may not hold up. Some compounds were tested as several samples or in several runs, with calls that do not always agree. Activity calls are given as the source filed them. Unless noted, calls come from the whole dose curve; as a rule, active = well fitted curve in the direction sought with a large enough effect in the repeat runs; inconclusive = weak or mixed curves; inactive = no such curve, though single readings can be large; an effect the other way counts as inactive or inconclusive.
# What was measured:
# [1] = molecular target: Peroxisome proliferator-activated receptor gamma (Homo sapiens) (UniProt P37231); experiment: qHTS assay to identify small molecule antagonists of the peroxisome proliferator-activated receptor gamma (PPARg) signaling pathway (AID 743191; calls by dose curve; note: % is set by controls: 0 for no effect and ±100 for the full control effect; nearly all actives have a fitted effect of over 30% in size); settings: HEK293H PPARg-UAS-bla, beta-lactamase ratio, antagonist, 17 h; ratio activity, negative = inhibition: at 62.6 µM (top of the series) unless noted
# Summary of the method: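 GeneBLAzer PPARg UAS-bla HEK293H cells, 5 h post-plating, exposed to compounds 17 h at 37C. LiveBLAzer B/G FRET substrate added for 1 h at room temperature; beta-lactamase reporter read by fluorescence intensity.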
# [2] = qHTS assay for small molecule agonists of the antioxidant response element (ARE) signaling pathway (AID 743202; active = well fitted activation curve with a large enough effect in the signal ratio in the repeat runs, not every such curve was filed as active; inconclusive = weak or mixed curves, or effect the other way; inactive = no such curve, though single readings can be large or run the other way; the % refers to the signal ratio; note: potency is the fitted concentration of half-maximal effect; for activation: % is set by controls: 0 for no effect and ±100 for the full control effect); settings: HepG2 ARE-bla reporter, beta-lactamase FRET, 16 h; activation: at 73.3 µM (top of the series) unless noted
# Summary of the method: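 ARE-bla HepG2 cells (beta-lactamase reporter under the antioxidant response element), plated 5 hours, then exposed to compounds 16 hours at 37 C. LiveBLAzer B/G FRET substrate added for 2 hours at room temperature; fluorescence intensity read.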
# [3] = qHTS assay to identify small molecule agonists of the RXR signaling pathway - cell viability counter screen (AID 1159529); note: nearly all actives have a fitted effect of over 50% in size; note: potency is the fitted concentration of half-maximal effect; for activity change, negative = cytotoxicity: % is set by controls: 0 for no effect and ±100 for the full control effect
# Summary of the method: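 RXR-alpha-UAS-bla HEK 293T cells in medium with 2% charcoal-stripped FBS were preincubated 5 hr, then exposed to compounds for 16 hr at 37 C. Viability was read as CellTiter-Glo luminescence after 30 min at room temperature.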
# [4] = molecular target: Estrogen receptor beta (Homo sapiens) (UniProt Q92731); experiment: qHTS assay to identify small molecule antagonists of the estrogen receptor beta (ER-beta) signaling pathway (AID 1259378; active = well fitted inhibition curve with a large enough effect in the signal ratio in the repeat runs, not every such curve was filed as active; inconclusive = weak or mixed curves, or effect the other way; inactive = no such curve, though single readings can be large or run the other way; the % refers to the signal ratio; note: potency is the fitted concentration of half-maximal effect); settings: ER-beta-UAS-bla HEK293T, beta-lactamase FRET ratio, 16 h; activity, negative = inhibition: at 92.4 µM (top of the series) unless noted
# Summary of the method: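 ER-beta-UAS-bla HEK293T cells in 2% charcoal-stripped FBS medium treated with compound plus 1nM final 17-beta-estradiol for 16 hr at 37C. Beta-lactamase reporter read by FRET substrate fluorescence after 2 hours at room temperature.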
# [5] = molecular target: Progesterone receptor (Homo sapiens) (UniProt P06401); experiment: qHTS assay to identify small molecule antagonists of the progesterone receptor (PR) signaling pathway (AID 1346795; active = well fitted inhibition curve with a large enough effect in the signal ratio in the repeat runs, not every such curve was filed as active; inconclusive = weak or mixed curves; the % refers to the signal ratio; note: potency is the fitted concentration of half-maximal effect); settings: PR-UAS-bla HEK293T, beta-lactamase FRET ratio, 16 h; activity change, negative = inhibition: at 92.4 µM (top of the series) unless noted
# Summary of the method: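 PR-UAS-bla HEK293T cells carrying a UAS-driven beta-lactamase reporter were plated in medium with 2% charcoal-stripped FBS and rested 6 hr at 37C. Compounds were added with 1 nM R5020 (final) for 16 hr, then FRET substrate loaded 2 hr at room temperature.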
# [6] = qHTS assay to identify small molecule antagonists of the progesterone receptor (PR) signaling pathway - cell viability counter screen (AID 1346798); note: nearly all actives have a fitted effect of over 50% in size; note: potency is the fitted concentration of half-maximal effect; for activity change, negative = cytotoxicity: % is set by controls: 0 for no effect and ±100 for the full control effect
# Summary of the method: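 PR-UAS-bla HEK293T cells in medium with 2% charcoal-stripped FBS were treated with compounds plus R5020 for 16 hr at 37C. Cell viability was then read by CellTiter-Glo luminescence after 30 min at room temperature in the same wells.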
# [7] = qHTS assay to identify small molecule agonists of the progesterone receptor (PR) signaling pathway - cell viability counter screen (AID 1346799; calls by dose curve; note: nearly all actives have a fitted effect of over 45% in size; note: potency is the fitted concentration of half-maximal effect)
# Summary of the method: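 PR-UAS-bla HEK293T cells, 3,000 per well in medium with 2% charcoal-stripped FBS, were preincubated 6 hr at 37C, then exposed to compounds for 16 hr; viability was read as CellTiter-Glo luminescence after 30 min at room temperature.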
# [8] = qHTS assay for small molecule disruptors of the mitochondrial membrane potential (AID 720635); settings: HepG2 mitochondrial membrane potential, Mito-MPS dye ratio; ratio activity, negative = MMP loss: at 83.2 µM (top of the series) unless noted; note: potency is the fitted concentration of half-maximal effect
# Summary of the method: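 HepG2 cells exposed to compound 1 hr at 37C, then Mito-MPS dye 30 min. Ratio read of aggregate (540/590 nm) versus monomer (490/535 nm) fluorescence.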
# [9] = qHTS assay for identifying genotoxic compounds that show differential cytotoxicity against isogenic chicken DT40 cell lines with known DNA damage response pathways - wild type cell line (AID 743012); settings: DT40 wild type chicken cells viability, CellTiter-Glo, 40 h; activity change, negative = cytotoxicity: at 68.4 µM (top of the series) unless noted; note: potency is the fitted concentration of half-maximal effect; nearly all actives have a fitted effect of over 60% in size
# Summary of the method: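 Quantitative HTS on parental DT40 cells: 40 h compound treatment at 37 C/5% CO2, with viability then determined by CellTiter-Glo luminescence. Values serve as the DNA repair-proficient reference for differential cytotoxicity.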
# [10] = qHTS assay for identifying genotoxic compounds that show differential cytotoxicity against isogenic chicken DT40 cell lines with known DNA damage response pathways - Rev3 mutant cell line (AID 743014); settings: chicken DT40 Rev3-/- viability, CellTiter-Glo, 40 h; activity, negative = cytotoxicity: at 68.4 µM (top of the series) unless noted; note: nearly all actives have a fitted effect of over 55% in size; note: potency is the fitted concentration of half-maximal effect
# [11] = qHTS assay to identify small molecule antagonists of the thyroid receptor (TR) signaling pathway - cell viability counter screen (AID 743064); settings: GH3.TRE-Luc viability, CellTiter-Fluor, 24 h; activity change, negative = cytotoxic: at 70.3 µM (top of the series) unless noted; note: potency is the fitted concentration of half-maximal effect; nearly all actives have a fitted effect of over 50% in size
# Summary of the method: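 GH3.TRE-Luc rat pituitary cells carrying a TRE-luciferase reporter were treated with compound plus 1 nM T3 (final) for 23.5 h at 37 °C. Viability was then read in the same wells by CellTiter-Fluor fluorescence after a further 30 min.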
# [12] = molecular target: Cytochrome P450 2C19 (Homo sapiens) (UniProt P33261); experiment: Cytochrome P450 Family 2 Subfamily C Member 19 (CYP2C19) small molecule antagonists: luciferase reporter qHTS assay (AID 1671197); note: % is set by controls: 0 for no effect and ±100 for the full control effect; nearly all actives have a fitted effect of over 65% in size
# Summary of the method: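 Enzyme-substrate mix with proluciferin substrate (P450-Glo CYP2C19 system) preincubated with compounds 10 min at room temperature; NADPH regeneration solution added, 37C for 1 h; detection reagent stops reaction, luminescence read after 20 min. Ketoconazole positive control.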
# [13] = molecular target: Vitamin D3 receptor (Homo sapiens) (UniProt P11473); experiment: qHTS assay to identify small molecule antagonists of the vitamin D receptor (VDR) signaling pathway (AID 743223; active = well fitted inhibition curve with a large enough effect in the signal ratio in the repeat runs, not every such curve was filed as active; inconclusive = weak or mixed curves, or effect the other way; inactive = no such curve, though single readings can be large or run the other way; the % refers to the signal ratio; note: % is set by controls: 0 for no effect and ±100 for the full control effect); settings: VDR-UAS-bla HEK293T, beta-lactamase FRET ratio, 16 h; activity change, negative = inhibition: at 61 µM (top of the series) unless noted
# Summary of the method: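 VDR-bla cells were plated, incubated 4 h at 37C, then given compound and 1alpha,25-dihydroxyvitamin D3 (3 nM final). After 16 h at 37C, LiveBLAzer B/G FRET substrate was added for 2 h at room temperature and fluorescence read.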
# [14] = molecular target: Cytochrome P450 1A2 (Homo sapiens) (UniProt P05177); experiment: Cytochrome P450 Family 1 Subfamily A Member 2 (CYP1A2) small molecule antagonists: luciferase reporter qHTS assay (AID 1671199); note: potency is the fitted concentration of half-maximal effect; nearly all actives have a fitted effect of over 50% in size
# Summary of the method: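 Signal from luciferin formed by CYP1A2 from a proluciferin substrate is read as luminescence, expressed in relative luminescence units. Compounds sit with enzyme 10 min, NADPH-driven reaction runs 1 h, all at room temperature.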
# [15] = molecular target: Glucocorticoid receptor (Homo sapiens) (UniProt P04150); experiment: qHTS assay to identify small molecule antagonists of the glucocorticoid receptor (GR) signaling pathway (AID 720692; active = well fitted inhibition curve with a large enough effect in the signal ratio in the repeat runs, not every such curve was filed as active; inconclusive = weak or mixed curves, or effect the other way; inactive = no such curve, though single readings can be large or run the other way; the % refers to the signal ratio; note: potency is the fitted concentration of half-maximal effect); settings: GR-bla HeLa, beta-lactamase FRET ratio, dexamethasone-stimulated, 18 h; activity change, negative = inhibition: at 58.5 µM (top of the series) unless noted
# Summary of the method: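 Fluorescence from cleaved LiveBLAzer B/G FRET substrate reports GRE-driven beta-lactamase in HeLa cells; compounds are tested against 5 nM dexamethasone (final) over 18 h at 37 C, substrate incubation 2 h at room temperature.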
# [16] = qHTS assay to identify small molecule antagonists of the sonic hedgehog signaling (Shh) pathway (AID 1259369; calls by dose curve; note: potency is the fitted concentration of half-maximal effect; nearly all actives have a fitted effect of over 45% in size)
# Summary of the method: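 Screening used 3T3Gli1-Luc cells at 2,000 per well, compounds delivered in DMSO, and conditioned medium as agonist stimulus; plates incubated 24hr at 37 C and 5% CO2 before a 30min luciferase step.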
# [17] = molecular target: Cytochrome P450 2D6 (Homo sapiens) (UniProt P10635); experiment: Cytochrome P450 Family 2 Subfamily D Member 6 (CYP2D6) small molecule antagonists: luciferase reporter qHTS assay (AID 1671196)
# Summary of the method: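 Inhibition of CYP2D6 was gauged by loss of luminescence, since light produced tracks the luciferin generated from a proluciferin substrate. A 10 min room-temperature preincubation preceded 1 h NADPH-supported turnover.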
# Tags give direction and shape of the fitted curve or compound fluorescence and quenching.
# UniProt P06401, sequence (P06401 whole entry, looked up): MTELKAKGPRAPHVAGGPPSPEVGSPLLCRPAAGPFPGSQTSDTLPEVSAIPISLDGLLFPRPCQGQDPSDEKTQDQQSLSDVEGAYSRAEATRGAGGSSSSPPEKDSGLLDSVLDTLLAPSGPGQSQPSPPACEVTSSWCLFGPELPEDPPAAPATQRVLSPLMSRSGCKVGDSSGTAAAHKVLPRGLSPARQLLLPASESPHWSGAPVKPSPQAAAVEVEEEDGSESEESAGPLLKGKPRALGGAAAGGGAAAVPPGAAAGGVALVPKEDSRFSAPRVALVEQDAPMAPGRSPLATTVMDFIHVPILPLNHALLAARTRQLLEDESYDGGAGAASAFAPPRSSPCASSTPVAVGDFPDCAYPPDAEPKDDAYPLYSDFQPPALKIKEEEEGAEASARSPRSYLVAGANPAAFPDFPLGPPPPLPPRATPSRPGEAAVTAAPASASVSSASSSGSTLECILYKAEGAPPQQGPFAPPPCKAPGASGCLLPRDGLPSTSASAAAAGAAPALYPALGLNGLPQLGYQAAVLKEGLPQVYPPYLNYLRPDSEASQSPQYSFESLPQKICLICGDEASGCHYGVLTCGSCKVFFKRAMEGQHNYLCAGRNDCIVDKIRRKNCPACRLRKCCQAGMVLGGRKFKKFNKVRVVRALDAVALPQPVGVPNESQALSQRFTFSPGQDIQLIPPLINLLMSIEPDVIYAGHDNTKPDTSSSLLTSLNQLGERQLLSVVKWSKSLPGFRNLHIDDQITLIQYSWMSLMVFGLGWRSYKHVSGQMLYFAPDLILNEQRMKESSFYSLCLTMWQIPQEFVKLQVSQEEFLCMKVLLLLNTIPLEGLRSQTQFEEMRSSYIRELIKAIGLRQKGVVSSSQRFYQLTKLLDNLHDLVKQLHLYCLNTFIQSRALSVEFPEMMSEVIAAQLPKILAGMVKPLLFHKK
# UniProt P11473, sequence (P11473 whole entry, looked up): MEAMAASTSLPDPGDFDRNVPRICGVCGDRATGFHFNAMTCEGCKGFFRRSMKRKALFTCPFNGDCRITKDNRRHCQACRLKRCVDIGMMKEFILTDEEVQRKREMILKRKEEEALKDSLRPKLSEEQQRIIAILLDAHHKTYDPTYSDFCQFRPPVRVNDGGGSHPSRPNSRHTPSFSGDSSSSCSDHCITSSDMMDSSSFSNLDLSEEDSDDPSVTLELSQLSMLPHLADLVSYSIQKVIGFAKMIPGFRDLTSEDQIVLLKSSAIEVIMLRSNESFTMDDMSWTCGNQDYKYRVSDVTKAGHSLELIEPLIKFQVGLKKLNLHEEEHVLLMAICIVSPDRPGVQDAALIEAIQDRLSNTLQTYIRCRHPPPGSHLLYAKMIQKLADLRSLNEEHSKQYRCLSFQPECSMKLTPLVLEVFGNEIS
# UniProt P05177, sequence (P05177 whole entry, looked up): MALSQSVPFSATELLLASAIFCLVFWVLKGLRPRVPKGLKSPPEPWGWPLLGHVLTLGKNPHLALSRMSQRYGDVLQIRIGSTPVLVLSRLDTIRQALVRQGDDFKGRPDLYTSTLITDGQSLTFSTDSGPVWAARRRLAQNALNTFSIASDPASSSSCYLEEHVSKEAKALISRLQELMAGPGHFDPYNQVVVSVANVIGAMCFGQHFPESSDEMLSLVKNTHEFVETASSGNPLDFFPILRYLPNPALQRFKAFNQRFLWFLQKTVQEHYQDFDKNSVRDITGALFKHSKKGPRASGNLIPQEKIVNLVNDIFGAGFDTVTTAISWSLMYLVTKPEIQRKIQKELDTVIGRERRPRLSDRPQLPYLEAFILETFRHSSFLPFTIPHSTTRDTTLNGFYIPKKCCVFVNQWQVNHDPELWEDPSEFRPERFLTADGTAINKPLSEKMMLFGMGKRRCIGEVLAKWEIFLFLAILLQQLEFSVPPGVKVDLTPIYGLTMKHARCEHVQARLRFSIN
# UniProt Q92731, sequence (Q92731 whole entry, looked up): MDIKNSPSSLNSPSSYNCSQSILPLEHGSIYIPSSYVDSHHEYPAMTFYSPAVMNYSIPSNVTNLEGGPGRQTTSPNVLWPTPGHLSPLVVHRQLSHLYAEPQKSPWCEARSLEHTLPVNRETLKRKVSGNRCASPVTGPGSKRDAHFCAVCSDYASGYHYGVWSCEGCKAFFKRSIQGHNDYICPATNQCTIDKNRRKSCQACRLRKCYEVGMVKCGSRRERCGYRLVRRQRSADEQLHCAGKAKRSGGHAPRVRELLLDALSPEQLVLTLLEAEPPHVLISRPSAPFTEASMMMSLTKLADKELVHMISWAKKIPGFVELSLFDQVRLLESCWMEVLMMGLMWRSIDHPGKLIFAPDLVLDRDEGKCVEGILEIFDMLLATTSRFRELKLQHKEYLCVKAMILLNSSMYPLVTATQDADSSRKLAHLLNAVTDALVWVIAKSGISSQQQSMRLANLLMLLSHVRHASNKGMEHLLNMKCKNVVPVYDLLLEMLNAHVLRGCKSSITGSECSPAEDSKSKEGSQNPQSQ
# UniProt P33261, sequence (P33261 whole entry, looked up): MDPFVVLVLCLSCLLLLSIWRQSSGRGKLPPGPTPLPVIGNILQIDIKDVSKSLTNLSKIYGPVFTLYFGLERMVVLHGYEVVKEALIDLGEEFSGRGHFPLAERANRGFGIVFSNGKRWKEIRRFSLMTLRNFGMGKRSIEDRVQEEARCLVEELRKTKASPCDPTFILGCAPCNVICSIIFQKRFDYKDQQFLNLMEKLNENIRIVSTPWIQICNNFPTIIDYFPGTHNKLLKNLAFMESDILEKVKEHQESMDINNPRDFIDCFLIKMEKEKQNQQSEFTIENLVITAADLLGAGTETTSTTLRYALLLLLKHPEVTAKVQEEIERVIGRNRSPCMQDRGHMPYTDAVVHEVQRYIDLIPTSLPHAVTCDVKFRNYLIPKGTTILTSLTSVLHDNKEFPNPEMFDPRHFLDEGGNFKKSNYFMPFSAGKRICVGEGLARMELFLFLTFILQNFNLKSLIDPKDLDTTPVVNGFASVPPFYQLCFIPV
# UniProt P37231, sequence (P37231 whole entry, looked up): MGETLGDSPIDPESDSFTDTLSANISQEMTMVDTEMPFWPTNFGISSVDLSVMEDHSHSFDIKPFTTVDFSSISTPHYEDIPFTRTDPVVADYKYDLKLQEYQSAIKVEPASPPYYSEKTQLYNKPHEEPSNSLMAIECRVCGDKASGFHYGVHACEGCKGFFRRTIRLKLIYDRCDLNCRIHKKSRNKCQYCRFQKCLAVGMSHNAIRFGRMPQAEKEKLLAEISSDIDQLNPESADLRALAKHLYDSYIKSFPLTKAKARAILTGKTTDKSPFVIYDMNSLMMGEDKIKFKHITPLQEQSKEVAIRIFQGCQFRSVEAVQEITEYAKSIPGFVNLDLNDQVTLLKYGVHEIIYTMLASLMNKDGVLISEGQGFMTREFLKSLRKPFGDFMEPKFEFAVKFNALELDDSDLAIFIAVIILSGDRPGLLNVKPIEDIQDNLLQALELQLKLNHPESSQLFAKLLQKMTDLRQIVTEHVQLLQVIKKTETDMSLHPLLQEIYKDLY
# UniProt P04150, sequence (P04150 whole entry, looked up): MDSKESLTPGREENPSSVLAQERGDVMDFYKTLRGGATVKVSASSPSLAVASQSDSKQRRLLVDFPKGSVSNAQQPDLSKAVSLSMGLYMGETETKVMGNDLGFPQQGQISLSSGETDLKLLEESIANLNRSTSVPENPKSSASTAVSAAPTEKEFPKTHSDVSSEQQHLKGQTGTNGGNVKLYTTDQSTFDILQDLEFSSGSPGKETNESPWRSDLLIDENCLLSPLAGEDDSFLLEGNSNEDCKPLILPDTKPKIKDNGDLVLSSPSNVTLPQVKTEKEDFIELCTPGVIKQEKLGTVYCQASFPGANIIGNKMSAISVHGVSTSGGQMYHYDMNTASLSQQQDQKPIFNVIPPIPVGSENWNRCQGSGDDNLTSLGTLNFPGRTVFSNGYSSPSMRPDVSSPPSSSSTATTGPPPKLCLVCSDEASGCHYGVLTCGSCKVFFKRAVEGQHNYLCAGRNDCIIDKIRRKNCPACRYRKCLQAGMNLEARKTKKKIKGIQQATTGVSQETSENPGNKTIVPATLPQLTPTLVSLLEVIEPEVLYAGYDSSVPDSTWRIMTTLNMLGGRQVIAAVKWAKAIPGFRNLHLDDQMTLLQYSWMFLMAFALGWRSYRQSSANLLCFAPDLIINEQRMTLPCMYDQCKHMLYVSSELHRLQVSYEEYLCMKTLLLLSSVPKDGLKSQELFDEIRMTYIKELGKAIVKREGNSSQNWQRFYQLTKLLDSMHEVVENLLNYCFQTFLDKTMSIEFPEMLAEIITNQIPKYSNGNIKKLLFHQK
# UniProt P10635, sequence (P10635 whole entry, looked up): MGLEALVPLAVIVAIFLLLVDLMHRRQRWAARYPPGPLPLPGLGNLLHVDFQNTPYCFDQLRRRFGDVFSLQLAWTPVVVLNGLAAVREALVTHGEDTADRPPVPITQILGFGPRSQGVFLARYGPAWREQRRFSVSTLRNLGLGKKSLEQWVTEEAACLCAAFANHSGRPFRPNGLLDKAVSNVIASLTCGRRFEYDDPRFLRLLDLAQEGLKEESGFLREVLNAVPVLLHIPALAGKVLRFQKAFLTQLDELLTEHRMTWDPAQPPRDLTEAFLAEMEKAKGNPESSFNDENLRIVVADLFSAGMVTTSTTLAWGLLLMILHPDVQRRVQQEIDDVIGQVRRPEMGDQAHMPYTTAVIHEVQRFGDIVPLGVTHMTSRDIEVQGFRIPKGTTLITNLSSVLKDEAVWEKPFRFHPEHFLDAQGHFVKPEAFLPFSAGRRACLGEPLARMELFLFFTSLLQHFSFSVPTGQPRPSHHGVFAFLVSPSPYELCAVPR
smiles,measurement,setting,value
CCC(=O)Oc1ccc2c(c1)CC[C@@H]1[C@@H]2CC[C@@]2(C)[C@H]1C[C@@H](OC(=O)CC)[C@@H]2OC(=O)CC,Potency,[1],inactive
same,Potency,[2],inactive
same,Potency,[3],inactive
same,Potency,[4],"inconclusive: 13.3 µM [activator, partial curve]"
same,Potency,[5],active: 1.88 µM
same,Potency,[6],inactive
same,Potency,[7],inactive
CCCCN(CCCC)CCCOC(=O)c1ccc(N)cc1,"ratio activity, negative = MMP loss",[8],inconclusive: 19.1% [at 39.1 µM]
same,Potency,[9],active: 4.52 µM
same,Potency,[10],active: 2.27 µM
same,Potency,[1],inactive
same,Potency,[3],"inconclusive: 3.01 µM [cytotoxic, partial curve, poor fit]"
same,Potency,[6],inactive
same,Potency,[7],"inconclusive: 7.5 µM [cytotoxic, single point]"
C=C[C@H]1CN2CC[C@H]1C[C@H]2[C@H](O)c1ccnc2ccc(OC)cc12,"ratio activity, negative = MMP loss",[8],inconclusive: 41.8%
same,Potency,[10],active: 23.7 µM and active: 13.3 µM and active: 27.3 µM
same,Potency,[11],"inconclusive: 29.8 µM [cytotoxic, single point] and active: 43.3 µM"
same,Potency,[3],"inconclusive: 21.3 µM [cytotoxic, partial curve, poor fit]"
same,Potency,[6],inactive
same,Potency,[7],inactive
same,Potency,[12],inactive
CO[Si](CCCNCCN)(OC)OC,Potency,[8],"inconclusive: 1.56 µM [activator, partial curve, poor fit]"
same,Potency,[9],"inconclusive: 4.33 µM [rising, partial curve, poor fit]"
same,Potency,[10],inconclusive: 69.6 µM [cytotoxic]
same,"activity change, negative = inhibition",[13],inconclusive: 2.78%
same,Potency,[3],inactive
same,"activity, negative = inhibition",[4],inconclusive: 12.4%
same,Potency,[5],inactive
same,Potency,[6],"inconclusive: 27.7 µM [rising, single point]"
same,Potency,[12],inactive
same,Potency,[14],"inconclusive: 32.2 µM [inhibitor, full curve, poor fit] and inconclusive: 71 µM [inhibitor, partial curve, poor fit]"
CCCCOC(=O)CC(CC(=O)OCCCC)(OC(C)=O)C(=O)OCCCC,Potency,[8],"inconclusive: 48.6 µM [inhibitor, partial curve, poor fit]"
same,"ratio activity, negative = MMP loss",[8],inconclusive: 1.58%
same,Potency,[15],"inconclusive: 9.52 µM [inhibitor, partial curve]"
same,"activity change, negative = inhibition",[15],inconclusive: -35.8% [at 78.9 µM]
same,Potency,[10],"inactive and inconclusive: 21.7 µM [cytotoxic, full curve]"
same,"ratio activity, negative = inhibition",[1],inconclusive: 18.8%
same,Potency,[2],"inconclusive: 30.6 µM [falling, partial curve, poor fit]"
same,Potency,[13],inactive
same,Potency,[3],"inconclusive: 11 µM [cytotoxic, partial curve, poor fit]"
same,Potency,[16],inconclusive: 68.6 µM [inhibitor]
same,Potency,[4],inactive
same,Potency,[6],"inconclusive: 5.45 µM [cytotoxic, partial curve, poor fit]"
same,Potency,[7],"inconclusive: 24.6 µM [rising, partial curve, poor fit]"
same,Potency,[17],"inconclusive: 22.4 µM [inhibitor, full curve, poor fit]"
same,Potency,[14],"inconclusive: 17.4 µM [inhibitor, full curve] and inconclusive: 16.1 µM [inhibitor, full curve] and inconclusive: 14.2 µM [inhibitor, full curve]"
